According to the BET-seq Pho4 binding data (Le et al. 2018):
The list shows a part of the results. Values were computed here from the reads of four pooled replicates and scatter widely.

These sequences were tested against T1, Pho4 (S. cerevisiae) (UniProt P07270) (assay: relative binding free energy (BET-seq); higher = weaker binding). Settings: reference: library average.
T1 sequence: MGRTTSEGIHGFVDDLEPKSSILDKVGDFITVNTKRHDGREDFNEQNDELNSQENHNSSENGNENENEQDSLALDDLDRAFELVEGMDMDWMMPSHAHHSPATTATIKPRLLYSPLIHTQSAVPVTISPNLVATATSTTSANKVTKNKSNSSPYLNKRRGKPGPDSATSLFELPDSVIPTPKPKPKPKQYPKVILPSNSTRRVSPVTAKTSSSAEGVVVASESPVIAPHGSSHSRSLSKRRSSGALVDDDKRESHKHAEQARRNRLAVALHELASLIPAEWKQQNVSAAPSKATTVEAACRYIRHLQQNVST

| Sequence | relative binding free energy [kcal/mol] |
| --- | --- |
| ATGATCACGTGAGATG | 0.22 |
| TTGTACACGTGGATGT | -0.01 |
| AAGGACACGTGGTTTA | 0 |
| TAGTGCACGTGGCTTT | -0.13 |
| AGCGACACGTGGTGGC | -0.05 |
| GTTAGCACGTGGGCAG | -0.16 |
| TGTTGCACGTGGAAGT | 0.1 |
| AGGGACACGTGATGGC | 0.03 |
| AAGGTCACGTGAAGAG | 0.38 |
| ACATTCACGTGGGTCT | 0.19 |
| TGGAACACGTGTGGCT | 0.08 |
| GTTGTCACGTGTCAGG | 0.14 |
| GGTGGCACGTGTTATA | -0.06 |
| GCATGCACGTGGGTTT | -0.14 |
| TTGGTCACGTGCGGGG | 0.06 |
| TGCGTCACGTGGTTGT | -0.02 |
| ATGTGCACGTGAATCT | 0.25 |
| TCTGTCACGTGGATTA | 0.08 |
| ATGGTCACGTGGTATC | 0.02 |
| ACTTTCACGTGTGGAT | 0.4 |
| GTTTTCACGTGTAGCG | 0.4 |
| AGAGCCACGTGGGAGG | -0.17 |
| GTAATCACGTGTGGGC | 0.39 |
| AGGTGCACGTGGGCGC | -0.16 |
| TGTAACACGTGGTGTC | -0.21 |

| Sequence | relative binding free energy [kcal/mol] |
| --- | --- |
| TTGGGCACGTGCCAGT | -0.25 |
| GAGATCACGTGAGGGG | 0.48 |
| CTTCGCACGTGAAGGT | 0.28 |
| ATAGTCACGTGAGTTC | 0.31 |
| GGCGCCACGTGGGAGG | -0.08 |
| GTGCGCACGTGGGCGA | -0.28 |
| TGTGCCACGTGAGGCT | 0.12 |
| ATAGTCACGTGTCTGG | 0.07 |
| CTAAGCACGTGGGTTT | -0.22 |
| CTTGGCACGTGTGAGT | -0.09 |
| ATAGGCACGTGGGTCT | -0.19 |
| TAGTGCACGTGTGTGT | 0.04 |
| GTTTCCACGTGGTGGA | 0.14 |
| TTAAACACGTGTAAGG | -0.04 |
| GGGAGCACGTGGTTAG | -0.11 |
| GTTCGCACGTGGGGGA | -0.19 |
| TGTATCACGTGTTTGT | 0.18 |
| GTTCACACGTGGGAAG | 0.13 |
| CGGGTCACGTGTCGTT | 0.15 |
| GGTTGCACGTGTGTCT | 0.08 |
| GGTGGCACGTGTCGAT | 0.09 |
| TGGTGCACGTGTGAGA | -0.01 |
| ATAAGCACGTGTGTAT | -0.08 |
| GGCGGCACGTGAGAGG | 0.11 |
| TGGGTCACGTGGGTAG | 0.05 |

| Sequence | relative binding free energy [kcal/mol] |
| --- | --- |
| TGAGCCACGTGTTATG | -0.01 |
| CGGGGCACGTGATGGA | 0.03 |
| AAGGTCACGTGAGTTG | 0.3 |
| TGCGGCACGTGGGAAG | -0.2 |
| GTCATCACGTGTTATT | 0.18 |
| ATTCACACGTGTGGAA | 0.19 |
| TTTTACACGTGCAAGG | 0.1 |
| TGGTTCACGTGCCGAT | 0.33 |
| GAGTTCACGTGCTATG | 0.26 |
| GGTACCACGTGTGTGA | 0.01 |
| AAGTTCACGTGAGTGA | 0.26 |
| TGGTGCACGTGCAGGG | -0.07 |
| AGCGTCACGTGGGCGC | 0 |
| GTCGACACGTGAGAGG | 0.26 |
| TTTTCCACGTGATTTA | 0.15 |
| GTGGGCACGTGTTAAA | 0.07 |
| TTAGGCACGTGACGTA | 0.02 |
| CGATACACGTGGGTTG | -0.18 |
| ATGTGCACGTGAATTA | 0.05 |
| AAGTCCACGTGTTGGA | 0.17 |
| TTAGTCACGTGTTGAC | 0.04 |
| TGCGCCACGTGGGGGG | -0.25 |
| ATGTCCACGTGGTGTT | -0.14 |
| TGAGGCACGTGCGTTC | -0.05 |
| TAAAGCACGTGCGGTA | -0.06 |

| Sequence | relative binding free energy [kcal/mol] |
| --- | --- |
| CTTGTCACGTGCGGGC | 0.2 |
| TGGGCCACGTGCGTTT | -0.12 |
| CTTGGCACGTGTCGGT | -0.21 |
| GTTGGCACGTGCGTTT | -0.13 |
| TTGGGCACGTGCTTTG | -0.09 |
| TTTCCCACGTGTAGGT | 0.11 |
| AAGTTCACGTGCGGTA | 0.23 |
| GAGTGCACGTGTAAAT | 0.19 |
| TTTTGCACGTGTATGA | 0.1 |
| TTGGGCACGTGAGAAT | 0.26 |
| TGTGACACGTGCTTAT | -0.08 |
| GTTGACACGTGGATTT | 0.16 |
| ATCTGCACGTGGGGGG | -0.13 |
| CGCGTCACGTGTGTTG | -0.04 |
| ATGTTCACGTGAAGGT | 0.44 |
| TAGGGCACGTGTGGTT | 0.02 |
| GGCTCCACGTGGGTTG | -0.15 |
| TAATACACGTGGATGG | -0.03 |
| GAGGTCACGTGGCGGA | 0.14 |
| AGGGACACGTGATATA | 0.07 |
| GGTCGCACGTGTGTGT | 0.05 |
| TGTTTCACGTGGCCGG | 0.11 |
| TTGGGCACGTGGCTGA | -0.23 |
| GTGCGCACGTGATTTG | 0.01 |
| TGTTGCACGTGAAAAA | 0.32 |

| Sequence | relative binding free energy [kcal/mol] |
| --- | --- |
| ATTGACACGTGAATGA | 0.25 |
| TCGTCCACGTGGGAGG | -0.06 |
| TGAGGCACGTGGAGAG | -0.14 |
| GTGAACACGTGCATGG | 0 |
| GTTAACACGTGGTTAG | 0.05 |
| TTGCACACGTGGTGCT | -0.06 |
| TGGTTCACGTGAGTGA | 0.32 |
| TATTTCACGTGGCGGC | 0.21 |
| TAGCGCACGTGGTGAA | -0.13 |
| TAATACACGTGGGTCT | -0.09 |
| TCTTACACGTGGCGTT | 0.15 |
| GCGTACACGTGTTTTA | 0.23 |
| TGATTCACGTGAGTTA | 0.33 |
| GCCGTCACGTGGTTTT | 0.22 |
| TCGTGCACGTGCAGTT | -0.1 |
| ATCTTCACGTGATAGG | 0.1 |
| CTAGTCACGTGCTGTT | 0.03 |
| AAGTTCACGTGGGACG | 0.22 |
| TGGGCCACGTGAGATG | 0.05 |
| TGGTTCACGTGGCTAG | 0.24 |
| TTAGGCACGTGGAGTA | -0.07 |
| ATTAGCACGTGGGATT | -0.07 |
| TAAATCACGTGGTCTT | 0.08 |
| GGGAGCACGTGTTTAA | -0.01 |
| TGGTTCACGTGCTTTC | 0.31 |

| Sequence | relative binding free energy [kcal/mol] |
| --- | --- |
| TAATCCACGTGGGTTG | 0 |
| GTTGCCACGTGGAAGG | -0.11 |
| TATAGCACGTGTGTGG | -0.04 |
| CGTAGCACGTGTATGG | -0.13 |
| AGAGGCACGTGTGCGC | -0.08 |
| ATTATCACGTGCGGTG | 0.13 |
| TGAGGCACGTGATAGA | -0.09 |
| GTTTGCACGTGGAGAA | 0.16 |
| GTAAGCACGTGTATGC | 0.01 |
| CAGGTCACGTGAGTAG | 0.18 |
| ATGATCACGTGCTTGG | 0.06 |
| TGGTGCACGTGTTACT | 0.05 |
| GGTCACACGTGTGCGG | 0.08 |
| TGGAACACGTGGGTAT | 0 |
| CCGGTCACGTGGGTTG | -0.16 |
| CGATACACGTGGGGGT | -0.06 |
| TTGTACACGTGCGGAT | 0.05 |
| GTTGGCACGTGGGGAC | -0.22 |
| GAAGGCACGTGATGGG | 0.01 |
| TGAGGCACGTGGCTTG | -0.18 |
| GTGGGCACGTGCGTGG | -0.17 |
